Measurements: the BET-seq Pho4 binding data (Le et al. 2018)
Some of the results follow. Values were computed here from the reads of four pooled replicates and scatter widely.

Molecular target: T1, Pho4 (S. cerevisiae) (UniProt P07270)
T1 sequence: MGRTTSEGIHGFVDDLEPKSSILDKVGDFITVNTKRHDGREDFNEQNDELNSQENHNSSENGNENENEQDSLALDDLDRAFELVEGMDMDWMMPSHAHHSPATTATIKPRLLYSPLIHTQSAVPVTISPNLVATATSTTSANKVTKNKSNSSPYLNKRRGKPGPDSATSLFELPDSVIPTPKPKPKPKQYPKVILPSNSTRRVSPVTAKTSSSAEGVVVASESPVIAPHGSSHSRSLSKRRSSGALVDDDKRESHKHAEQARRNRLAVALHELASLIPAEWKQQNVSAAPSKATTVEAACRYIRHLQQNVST
Experiment: relative binding free energy (BET-seq); higher = weaker binding
Conditions: reference: library average

Row | Sequence | relative binding free energy
1 | TAGTGCACGTGTGACG | -0.09 kcal/mol
2 | AGGCTCACGTGGGGGC | 0.07 kcal/mol
3 | TATTGCACGTGACGAT | 0.24 kcal/mol
4 | GGGGTCACGTGTTAGA | 0.15 kcal/mol
5 | TTTGGCACGTGCGGAA | -0.09 kcal/mol
6 | AGACGCACGTGGAGTT | 0.07 kcal/mol
7 | TGTCGCACGTGGTTTG | -0.11 kcal/mol
8 | GGGTTCACGTGTATTA | 0.35 kcal/mol
9 | GGTTTCACGTGTTTTC | 0.36 kcal/mol
10 | AATTACACGTGGTTTG | 0.07 kcal/mol
11 | TTTGGCACGTGTCGTT | -0.05 kcal/mol
12 | TTCTTCACGTGTTGCG | 0.34 kcal/mol
13 | AATTACACGTGAATGG | 0.22 kcal/mol
14 | TGTATCACGTGCGTGG | -0.01 kcal/mol
15 | CTTGTCACGTGGGACA | 0.16 kcal/mol
16 | GTGTTCACGTGTGGGA | 0.33 kcal/mol
17 | CCGTTCACGTGATGGG | 0.39 kcal/mol
18 | GTTACCACGTGCTGGG | 0 kcal/mol
19 | GTGGCCACGTGTAGGA | 0.03 kcal/mol
20 | GGGAGCACGTGTATAG | -0.03 kcal/mol
21 | AGTGACACGTGGCATT | -0.02 kcal/mol
22 | AAGATCACGTGTTGGA | 0.13 kcal/mol
23 | TGAGCCACGTGTGGGA | 0.01 kcal/mol

Row | Sequence | relative binding free energy
24 | GTCAGCACGTGTTGTT | 0.13 kcal/mol
25 | TAAGTCACGTGATCTG | 0.22 kcal/mol
26 | CTCGGCACGTGTAGTT | 0.12 kcal/mol
27 | GGTTGCACGTGTTGCT | 0.06 kcal/mol
28 | CTGCTCACGTGTGGGA | 0.25 kcal/mol
29 | TATGACACGTGGCTTG | -0.23 kcal/mol
30 | TATTCCACGTGATTTT | 0.21 kcal/mol
31 | CAAGGCACGTGAAGTG | 0.25 kcal/mol
32 | ATAGACACGTGTGGTG | 0.03 kcal/mol
33 | AAGGTCACGTGAGGCG | 0.22 kcal/mol
34 | AATTACACGTGTGGGC | 0.21 kcal/mol
35 | AGAGTCACGTGTGAGG | 0.15 kcal/mol
36 | ATGCACACGTGGTTTG | -0.13 kcal/mol
37 | TTTAGCACGTGAGCGT | 0.1 kcal/mol
38 | TAGAGCACGTGGTCTT | -0.2 kcal/mol
39 | AGTTTCACGTGTCGCG | 0.25 kcal/mol
40 | GATTACACGTGTCTGT | 0.18 kcal/mol
41 | GTGTTCACGTGAGAGA | 0.5 kcal/mol
42 | GGAAACACGTGGCTGT | 0 kcal/mol
43 | CATGACACGTGTTTTG | -0.02 kcal/mol
44 | TAGGGCACGTGTGTAT | 0.01 kcal/mol
45 | GGGCTCACGTGTGGTT | 0.29 kcal/mol
46 | GATCACACGTGGGTGT | 0.01 kcal/mol

Row | Sequence | relative binding free energy
47 | TTTTTCACGTGAGGGC | 0.42 kcal/mol
48 | TAAGCCACGTGGGGTG | -0.3 kcal/mol
49 | TTCGTCACGTGAGGGA | 0.23 kcal/mol
50 | GGCTGCACGTGGGAGC | 0 kcal/mol
51 | GGTGCCACGTGTGGTT | 0.02 kcal/mol
52 | GTGTACACGTGGGAGT | 0 kcal/mol
53 | CTGGGCACGTGGGTGA | -0.38 kcal/mol
54 | CTGGACACGTGTATGT | 0.01 kcal/mol
55 | ACCGGCACGTGCGTGG | -0.07 kcal/mol
56 | GGATGCACGTGAGGAT | 0.31 kcal/mol
57 | ATCGGCACGTGTGTGG | -0.02 kcal/mol
58 | TCTTACACGTGGGATG | -0.04 kcal/mol
59 | GCATGCACGTGTGGGC | 0.15 kcal/mol
60 | GGTGGCACGTGGATCA | -0.05 kcal/mol
61 | TGACGCACGTGTAAGT | 0 kcal/mol
62 | GGTATCACGTGCGCGT | 0.01 kcal/mol
63 | CGTGGCACGTGTGGCC | -0.02 kcal/mol
64 | TAGTTCACGTGTAAGG | 0.25 kcal/mol
65 | ACTGTCACGTGGGGGT | -0.18 kcal/mol
66 | TTCTGCACGTGATGGC | 0.17 kcal/mol
67 | ATTAGCACGTGATTGT | 0.01 kcal/mol
68 | CCTGTCACGTGTGTTT | 0.09 kcal/mol
69 | TAGTGCACGTGACTGT | 0.02 kcal/mol

Row | Sequence | relative binding free energy
70 | TGTGTCACGTGTGTAT | 0.04 kcal/mol
71 | TTGTTCACGTGATGCT | 0.18 kcal/mol
72 | GTCCTCACGTGTGAGG | 0.29 kcal/mol
73 | TCTTGCACGTGTTCAT | 0.1 kcal/mol
74 | TGCGTCACGTGACTGT | 0.3 kcal/mol
75 | TTTGTCACGTGAGCGG | 0.27 kcal/mol
76 | TCTAGCACGTGAAGTG | 0.16 kcal/mol
77 | AGGCGCACGTGGATTA | -0.03 kcal/mol
78 | GGTTGCACGTGTACTA | 0.13 kcal/mol
79 | ATTTGCACGTGTAACG | 0.08 kcal/mol
80 | GCTGTCACGTGTTCGG | 0.04 kcal/mol
81 | GTTGTCACGTGAGGAA | 0.31 kcal/mol
82 | TCAGGCACGTGTAGTA | 0.01 kcal/mol
83 | GATGTCACGTGATAGA | 0.29 kcal/mol
84 | TGCCGCACGTGGTTTG | -0.17 kcal/mol
85 | CTGGCCACGTGTGGTG | -0.09 kcal/mol
86 | AGTCTCACGTGGTGTG | 0.17 kcal/mol
87 | GGAGGCACGTGTGTGA | -0.09 kcal/mol
88 | GGATTCACGTGGCTGA | 0.3 kcal/mol
89 | CGTAGCACGTGGTGAG | -0.19 kcal/mol
90 | GTGCGCACGTGGGAAT | -0.08 kcal/mol
91 | CGTTTCACGTGAGGGC | 0.23 kcal/mol
92 | TTGTGCACGTGTAGCG | 0.04 kcal/mol

Row | Sequence | relative binding free energy
93 | AGTCTCACGTGAGGGG | 0.29 kcal/mol
94 | ATTCTCACGTGCGGTG | 0.13 kcal/mol
95 | ATGTTCACGTGCTGAG | 0.25 kcal/mol
96 | CGTAGCACGTGGGCGT | -0.18 kcal/mol
97 | ATCCACACGTGGGTGT | -0.06 kcal/mol
98 | CTGTGCACGTGCGTTA | -0.08 kcal/mol
99 | ATTTACACGTGTGTCA | 0.08 kcal/mol
100 | AATTTCACGTGCGTTT | 0.17 kcal/mol
101 | GTGTACACGTGGTGTT | 0.02 kcal/mol
102 | AACGACACGTGGAGGT | 0.05 kcal/mol
103 | TCATTCACGTGTGGTA | 0.18 kcal/mol
104 | ATTTGCACGTGACTGA | 0.25 kcal/mol
105 | GTAGACACGTGAAGTT | 0.35 kcal/mol
106 | GAAAACACGTGTGGGT | 0.24 kcal/mol
107 | TGTTTCACGTGATACG | 0.16 kcal/mol
108 | GGCGCCACGTGTTGTG | -0.06 kcal/mol
109 | TGGCTCACGTGACGTG | 0.44 kcal/mol
110 | TTTCTCACGTGTGGGT | 0.23 kcal/mol
111 | TTGTCCACGTGTTTGA | -0.01 kcal/mol
112 | TCAATCACGTGTTTTA | 0.1 kcal/mol
113 | GTGAGCACGTGATTGG | 0.23 kcal/mol
114 | GGGAGCACGTGGGGAC | -0.11 kcal/mol
115 | GCAGACACGTGGGGTG | -0.22 kcal/mol
